Results: ChEMBL document CHEMBL4888484, “Replenishing the malaria drug discovery pipeline: Screening and hit evaluation of the MMV Hit Generation Library 1 (HGL1) against asexual blood stage Plasmodium falciparum ,using a nano luciferase reporter read-out” (2022)
The whole screen tested about 150,000 compounds, of which about 540 (0.36%) showed an effect of 50% or more. This is one part of the list.

test system: Plasmodium falciparum; test: Primary screen in NF54 nanoGlo assay, in single point, at 2uM, 72h; a lower Z score goes with more inhibition; assay type: functional, Erythrocyte; conditions: timepoint 72 hour

Q: Which results are given for `CN(C)Cc1cc(C[C@@H]2C[C@H](NC(=O)C3CCC3)C2(C)C)no1`?
A: % Inhibition: -4%; Z score: 0.57

Q: Which “% Inhibition” value does the source give for `COc1ccc(Cl)cc1NC(=O)Cn1c(=O)c2nnc(C(C)C)n2c2ccccc21` here?
A: -8%

Q: And the Z score?
A: 0.91

Q: What does the source list for `N#Cc1cccc(C(=O)N2CCCCCCNC(=O)[C@@H]3CCC[C@@H]32)c1`?
A: % Inhibition: -10%; Z score: 1.31

Q: For `Cc1noc(C)c1NC(=O)C1CCN(C(=O)c2ccco2)CC1`, which “% Inhibition” value is on record?
A: 11%

Q: And the Z score?
A: -1.71

Q: `O=C(c1ccc(-c2ccccc2)[nH]c1=O)N1CC[C@H](c2ccccc2F)C1` was tested. Which “% Inhibition” value did it give?
A: 5%

Q: What about the Z score of the same compound?
A: -0.69

Q: For `C[C@H](NS(=O)(=O)c1cccc2nsnc12)c1nncn1C`, which “% Inhibition” value is on record?
A: -8%

Q: And the Z score?
A: 1.65

Q: Which “% Inhibition” value does the source give for `Cc1ccccc1NC(=O)[C@H]1C[C@H](F)CN1` here?
A: -3%

Q: What about the Z score of the same compound?
A: 0.5

Q: With `Cc1nn(C)cc1C(C)NC(=O)N1Cc2ccccc2N(C)CC1C` (centres undefined) as the compound, how does the “% Inhibition” value read?
A: -6%

Q: And the Z score?
A: 1.16

Q: Which “% Inhibition” value does the source give for `CCCn1nnnc1COc1c(C)nn(C)c1C` here?
A: -17%

Q: What about the Z score of the same compound?
A: 3.05

Q: With `Cc1ccc(OCC(=O)N2C[C@H]3CC[C@@H](C2)N(C)C3=O)cc1C` as the compound, how does the “% Inhibition” value read?
A: -6%

Q: And the Z score?
A: 1.17

Q: How did the “% Inhibition” value turn out when `CCCCn1ncnc1C[C@H](C)n1ccnc1C` was run?
A: -6%

Q: And the Z score?
A: 0.79

Q: `Cc1ccc(S(=O)(=O)N2C[C@@H]3C[C@H](N(C)C)CN3C(=O)[C@@H]2C)cc1` was tested. Which “% Inhibition” value did it give?
A: -16%

Q: What about the Z score of the same compound?
A: 1.41

Q: Which “% Inhibition” value does the source give for `CN1CCC(N(Cc2ccncc2)Cc2coc(-c3ccccc3)n2)CC1` here?
A: -4%

Q: And the Z score?
A: 0.55

Q: With `O=C(Cn1nnc2ccccc2c1=O)N1CCN(C(=O)c2ccco2)CC1` as the compound, how does the “% Inhibition” value read?
A: -9%

Q: What about the Z score of the same compound?
A: 1.56

Q: Which results are given for `CCn1cc(C(=O)N2CCn3c(nn(CC)c3=O)[C@H]2c2ccccc2)cn1`?
A: % Inhibition: -10%; Z score: 1.62

Q: `COc1cc(-c2nc(-c3ccc(F)cc3)c(-c3ccc(F)cc3)[nH]2)cc2c1OCO2` was tested. Which “% Inhibition” value did it give?
A: 40%

Q: What about the Z score of the same compound?
A: -5.17

Q: How did the “% Inhibition” value turn out when `Cc1cc(C)n(CCc2c(-c3ccccc3)ncn2[C@H](C)C(N)=O)n1` was run?
A: -7%

Q: What about the Z score of the same compound?
A: 1.32

Q: With `CCCC1CCC(CNc2cnn(C)c2)CC1` (centres undefined) as the compound, how does the “% Inhibition” value read?
A: -4%

Q: What about the Z score of the same compound?
A: 0.59

Q: With `COc1cccc(CN2CCC3(CCC(=O)N3Cc3ccc(F)cc3)CC2)n1` as the compound, how does the “% Inhibition” value read?
A: 0%

Q: And the Z score?
A: -0.01

Q: What does the source list for `N[C@@H]1c2ccccc2C[C@H]1NS(=O)(=O)N1CCCCCC1`?
A: % Inhibition: -9%; Z score: 1.72

Q: What does the source list for `Cc1cccc(-n2ncnc2[C@@H](C)Cn2nc(C)nc2C)c1`?
A: % Inhibition: 13%; Z score: -1.86

Q: `Cc1ccc2c(c1)C(NC(=O)CCCC(=O)N(C)C)C(C)C2` (centres undefined) was tested. Which “% Inhibition” value did it give?
A: -13%

Q: And the Z score?
A: 1.09

Q: For `Cc1cc(CC(=O)NC(C)(C)CN(C)Cc2ccccc2)n[nH]1`, which “% Inhibition” value is on record?
A: -10%

Q: And the Z score?
A: 1.33

Q: `CC(C)(C)c1ccc(OCC2CCN(c3nnc(C4CC4)s3)CC2)nn1` was tested. Which “% Inhibition” value did it give?
A: -11%

Q: And the Z score?
A: 1.48

Q: Which results are given for `Nc1nccnc1C(=O)Nc1cn[nH]c1`?
A: % Inhibition: -11%; Z score: 2.04

Q: For `Cn1cc(S(=O)(=O)N2CCc3cnccc32)cn1`, which “% Inhibition” value is on record?
A: 1%

Q: What about the Z score of the same compound?
A: -0.16

Q: Which “% Inhibition” value does the source give for `CCOc1cc(-n2cnnn2)c(OCC)cc1NC(=O)c1cn(-c2ccc(F)cc2)nn1` here?
A: -14%

Q: And the Z score?
A: 1.2

Q: Which “% Inhibition” value does the source give for `CCCN(CCC)C(=O)c1cncc(Br)c1` here?
A: -9%

Q: What about the Z score of the same compound?
A: 0.93

Q: How did the “% Inhibition” value turn out when `Cc1cc(C(=O)N[C@@H]2C[C@H]3OCC[C@@H]23)cnc1C` was run?
A: -1%

Q: And the Z score?
A: 0.22

Q: How did the “% Inhibition” value turn out when `Cc1ccc(-c2nc(CNc3ncc(C#N)c(N)n3)[nH]c2-c2ccccn2)cc1` was run?
A: 1%

Q: And the Z score?
A: -0.21

Q: Which results are given for `O=C(c1ccc(Br)cc1-n1cncn1)N1CCNCC1`?
A: % Inhibition: -9%; Z score: 1.18

Q: For `CCOc1ccc(C2=C(CN3CCOCC3)[C@@H](c3ccc(F)cc3)c3ccccc3O2)cc1`, which “% Inhibition” value is on record?
A: -13%

Q: And the Z score?
A: 1.62

Q: `CN1C(=O)NC2(CCN(C(=O)C3c4ccccc4Oc4ccccc43)CC2)C1=O` was tested. Which “% Inhibition” value did it give?
A: 5%

Q: What about the Z score of the same compound?
A: -0.9

Q: Which results are given for `CCc1cc2c(NC34CCC3CN(C(=O)c3cnc(C)s3)C4)ncnc2s1` (centres undefined)?
A: % Inhibition: 8%; Z score: -0.85

Q: `Cc1ccsc1[C@@H](O)CNC(=O)N1CCNC1=O` was tested. Which “% Inhibition” value did it give?
A: -1%

Q: What about the Z score of the same compound?
A: 0.19

Q: Which results are given for `O=C(COc1ccccc1)Nc1cnc(-n2cccn2)nc1`?
A: % Inhibition: -11%; Z score: 1.65

Q: For `O=C(NC1CCCCC1)c1ccc2ccccc2c1`, which “% Inhibition” value is on record?
A: -6%

Q: And the Z score?
A: 1.27

Q: Which “% Inhibition” value does the source give for `CC(=O)N(C)C1CCN(Cc2coc3ccccc23)CC1` here?
A: -11%

Q: And the Z score?
A: 1.93

Q: With `Cc1csc(C(=O)NCC[C@H](O)c2cccs2)c1` as the compound, how does the “% Inhibition” value read?
A: -13%

Q: What about the Z score of the same compound?
A: 1.87

Q: `CO[C@H]1C[C@H]2CC[C@@H](C1)N2Cc1c[nH]nc1-c1ccc(F)cc1` was tested. Which “% Inhibition” value did it give?
A: 13%

Q: What about the Z score of the same compound?
A: -1.69

Q: Which results are given for `Cc1cc2n(n1)[C@H](C(F)(F)F)CCN2C(=O)c1ncccc1C`?
A: % Inhibition: -10%; Z score: 1.47

Q: Which “% Inhibition” value does the source give for `COc1ccc(-c2nc3cccnc3n2[C@H]2CCN(C(=O)Nc3ccc(C)c(F)c3)C2)cc1` here?
A: -6%

Q: What about the Z score of the same compound?
A: 0.88
